Data from PubChem BioAssay AID504333 (National Center for Advancing Translational Sciences (NCATS), 2011).
In all, about 360,000 compounds went through this assay and about 16,000 (4.4%) were called active. Inconclusive means that the source gave no clear call. Such entries were picked first, then a sample of the others. The call rests on the fitted dose curve; in most records, active means well fitted inhibition curve with a large enough effect; inconclusive means small, poorly fitted or top-dose-only effect; inactive means no such curve, though single readings can be large or run the other way. Potencies beside an inconclusive call are fits to weak or partial responses and may not hold up.

target: Bromodomain adjacent to zinc finger domain protein 2B (Homo sapiens) (UniProt Q9UIF8); test: qHTS Assay for Inhibitors of BAZ2B; conditions: AlphaScreen BAZ2B-H3K14Ac peptide displacement; activity change, negative = inhibition: at 114 µM (top of the series); further: nearly all actives have a fitted effect of over 60% in size
Outline: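 AlphaScreen luminescence quantifies BAZ2B engagement of H3K14Ac peptide; the protein and biotinylated peptide are both at 50 nM final, buffer PBS pH 7.4 with 0.01% Tween-20, all steps at room temperature.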
On the % scale 0 is the no-effect control and ±100 the full control effect; potency means the concentration at half of the fitted maximal effect; tags describe the fitted curve by direction and shape.

Sequence of UniProt Q9UIF8 (Q9UIF8 whole entry, looked up, the tested form may be a part): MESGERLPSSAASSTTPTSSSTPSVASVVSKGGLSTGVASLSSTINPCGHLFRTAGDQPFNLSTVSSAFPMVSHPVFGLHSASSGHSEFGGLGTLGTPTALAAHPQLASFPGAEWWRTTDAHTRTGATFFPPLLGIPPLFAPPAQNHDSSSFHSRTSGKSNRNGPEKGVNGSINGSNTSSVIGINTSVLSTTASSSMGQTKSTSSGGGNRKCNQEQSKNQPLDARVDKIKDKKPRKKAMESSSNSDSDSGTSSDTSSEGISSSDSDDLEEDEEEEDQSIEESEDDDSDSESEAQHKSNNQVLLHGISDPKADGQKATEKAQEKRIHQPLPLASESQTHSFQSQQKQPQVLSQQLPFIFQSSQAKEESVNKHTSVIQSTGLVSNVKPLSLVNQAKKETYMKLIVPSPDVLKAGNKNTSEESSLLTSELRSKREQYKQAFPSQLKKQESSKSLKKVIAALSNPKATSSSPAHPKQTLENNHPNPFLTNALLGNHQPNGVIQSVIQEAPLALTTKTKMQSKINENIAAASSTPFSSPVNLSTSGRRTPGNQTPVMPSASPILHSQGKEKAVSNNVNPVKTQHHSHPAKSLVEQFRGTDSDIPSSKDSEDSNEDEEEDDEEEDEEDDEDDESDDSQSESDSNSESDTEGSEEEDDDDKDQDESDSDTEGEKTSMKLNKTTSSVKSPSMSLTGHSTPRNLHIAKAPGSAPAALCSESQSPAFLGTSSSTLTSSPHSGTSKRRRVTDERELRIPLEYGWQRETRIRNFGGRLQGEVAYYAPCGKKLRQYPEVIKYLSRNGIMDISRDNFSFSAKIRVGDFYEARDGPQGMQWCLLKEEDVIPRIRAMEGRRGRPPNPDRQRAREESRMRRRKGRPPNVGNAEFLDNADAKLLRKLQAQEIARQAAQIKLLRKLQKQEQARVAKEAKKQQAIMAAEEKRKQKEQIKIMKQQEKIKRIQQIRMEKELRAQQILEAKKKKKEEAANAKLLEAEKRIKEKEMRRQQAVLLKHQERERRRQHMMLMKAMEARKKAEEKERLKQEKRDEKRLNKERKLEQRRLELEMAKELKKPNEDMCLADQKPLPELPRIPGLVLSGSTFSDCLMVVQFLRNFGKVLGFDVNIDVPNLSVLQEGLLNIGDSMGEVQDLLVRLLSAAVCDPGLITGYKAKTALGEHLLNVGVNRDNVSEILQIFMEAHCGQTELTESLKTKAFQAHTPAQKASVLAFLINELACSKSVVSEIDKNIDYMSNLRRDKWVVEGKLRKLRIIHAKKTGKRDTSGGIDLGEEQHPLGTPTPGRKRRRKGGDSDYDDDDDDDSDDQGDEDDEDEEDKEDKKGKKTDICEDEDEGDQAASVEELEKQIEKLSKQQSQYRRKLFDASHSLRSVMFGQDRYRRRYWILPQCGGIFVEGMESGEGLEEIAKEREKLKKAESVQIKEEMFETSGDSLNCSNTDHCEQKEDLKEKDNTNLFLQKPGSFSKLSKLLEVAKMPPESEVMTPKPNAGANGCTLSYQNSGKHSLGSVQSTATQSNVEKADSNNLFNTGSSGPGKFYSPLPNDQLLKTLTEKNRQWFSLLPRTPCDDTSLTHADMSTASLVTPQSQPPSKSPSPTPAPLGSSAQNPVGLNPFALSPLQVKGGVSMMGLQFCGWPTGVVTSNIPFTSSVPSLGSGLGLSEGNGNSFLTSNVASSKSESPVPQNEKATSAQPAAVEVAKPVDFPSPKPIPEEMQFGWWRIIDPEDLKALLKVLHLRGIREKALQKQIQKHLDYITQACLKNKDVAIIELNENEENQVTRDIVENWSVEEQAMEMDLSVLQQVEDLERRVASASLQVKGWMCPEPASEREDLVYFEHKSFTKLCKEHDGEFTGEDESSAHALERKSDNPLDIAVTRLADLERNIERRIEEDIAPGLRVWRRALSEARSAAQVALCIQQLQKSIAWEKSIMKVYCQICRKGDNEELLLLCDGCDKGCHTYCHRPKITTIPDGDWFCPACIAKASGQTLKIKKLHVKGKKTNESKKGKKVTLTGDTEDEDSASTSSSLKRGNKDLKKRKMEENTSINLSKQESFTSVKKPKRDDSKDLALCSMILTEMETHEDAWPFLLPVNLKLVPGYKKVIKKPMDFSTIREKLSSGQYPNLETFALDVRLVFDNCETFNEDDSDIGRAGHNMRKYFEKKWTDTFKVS

| Compound | Potency | activity change, negative = inhibition |
| --- | --- | --- |
| COc1ccc(N2CCN(Cc3nc4c(c(=O)[nH]c(=O)n4C)n3CCCc3ccccc3)CC2)cc1 | inconclusive: 89.1 µM [inhibitor, single point] |  |
| COc1cccc(NCc2ccc([N+](=O)[O-])s2)c1 | inconclusive: 50.1 µM [inhibitor, partial curve] |  |
| O=c1[nH]c(CN2CCN(c3ccc(F)cc3)CC2)nc2ccccc12 |  | inactive: -37.4% |
| Cc1ccc2c(c1)N(C(=O)CCC(=O)NCc1cccc(F)c1)CC(C)O2 (centres undefined) |  | inactive: -0.685% |
| COc1ccc(CC(=O)Nc2nc3c(s2)CCCC3)cc1 | inconclusive: 56.2 µM [inhibitor, partial curve] |  |
| CCOc1cccc2sc(N(CCCN(C)C)C(=O)c3ccc(S(=O)(=O)N(CC)Cc4ccccc4)cc3)nc12 | inconclusive: 44.7 µM [inhibitor, partial curve] |  |
| CC(C)CCC(C(=O)NC(C)c1ccccc1)C(=O)NC(C)c1ccccc1 (centres undefined) | inconclusive: 56.2 µM [inhibitor, partial curve] |  |
| Clc1ccc(Cn2cc(/C=N/n3cnnc3)c3ccccc32)c(Cl)c1 | inconclusive: 89.1 µM [inhibitor, single point] |  |
| CC(C)(C)c1ccc(C(=O)Nc2ccc(-c3nc4ccccc4o3)c(O)c2)cc1 |  | inactive: 1.63% |
| CC(C)(C)c1csc(NC(=O)c2ccccc2O)n1 |  | inactive: -2.57% |
| O=C(O)c1ccc(-c2sc(Nc3ccccc3)n[n+]2-c2ccccc2)cc1 | inconclusive: 39.8 µM [inhibitor, single point] |  |
| COc1ccccc1OCCn1c(SCC(=O)O)nc2ccccc21 | inconclusive: 89.1 µM [inhibitor, single point] |  |
| O=C(COc1ccccc1[N+](=O)[O-])N/N=C/c1cccs1 |  | inactive: -0.733% |
| CC(=O)Nc1ccc(C(=O)Nc2cccc(-c3cnc4ccccc4n3)c2)cc1 | inconclusive: 56.2 µM [inhibitor, partial curve] |  |
| N#C/C(=C\c1ccccc1C(=O)O)c1nc2ccccc2[nH]1 |  | inactive: 3.08% |
| Cc1cccc(OCC(=O)NCc2cc(C)nc3ccccc23)c1 |  | inactive: -8.49% |
| O=C(CN1CCSCC1)N/N=C/c1ccc(F)cc1F | inconclusive: 89.1 µM [inhibitor, single point] |  |
| COc1ccc(C2NCCc3c2[nH]c2ccccc32)cc1CSc1nc2ccccc2s1 (centres undefined) | active: 44.7 µM |  |
| Cc1cc(SC#N)cc(C)c1NC(=O)CCl |  | inactive: -2.95% |
| CCOc1ccc(/C=C(\C#N)C(=O)c2c(C)[nH]c3ccccc23)cc1OC | inconclusive: 28.2 µM [inhibitor, full curve] |  |
| CCn1c(N)c(C(=O)Nc2ccccc2C(=O)OC)sc1=S | inconclusive: 11.2 µM [inhibitor, full curve, poor fit] |  |
| CC(C)CS(=O)(=O)C1=NSC2=NC(=O)/C(=C\c3ccc(OC(=O)c4ccco4)cc3)C(=N)N21 | inconclusive: 79.4 µM [inhibitor, single point] |  |
| Cc1cc(=S)nc(-c2ccccn2)[nH]1 | inconclusive: 89.1 µM [inhibitor, single point] |  |
| CSC1=NC(=O)/C(=C\c2cccc3ccccc23)S1 | active: 39.8 µM |  |
| COc1cc2c(cc1NCc1ccc3c(c1)OCO3)oc1ccccc12 | active: 31.6 µM |  |

| Compound | Potency | activity change, negative = inhibition |
| --- | --- | --- |
| CCCCSc1nc2sc3c(c2c(=O)n1-c1ccccc1C)CC(C)(C)OC3 |  | inactive: -13% |
| CN(C(=O)CSc1ccc(S(=O)(=O)N2CCCCC2)cn1)c1ccccc1 |  | inactive: 4.21% |
| Cc1ccc2onc(CC(=O)N3CCN(c4cccc(Cl)c4)CC3)c2c1 | inconclusive: 44.7 µM [inhibitor, partial curve] |  |
| CCC(C)c1ccccc1N1CC(C(=O)N2CCN(C(=O)c3ccco3)CC2)CC1=O (centres undefined) | inconclusive: 0.708 µM [inhibitor, full curve, poor fit] |  |
| COc1ccc(NC(=O)Cn2c(=O)oc3cc(S(=O)(=O)N4CCCCCC4)ccc32)cc1OC |  | inactive: -12.7% |
| Nc1nnnn1/N=C/c1ccc(Cl)cc1 |  | inactive: -12.9% |
| CCN(CC)S(=O)(=O)c1ccc2c(c1)N(CC(=O)Nc1cccc(C#N)c1)C(=O)CO2 |  | inactive: -18.9% |
| O=C(c1ccccc1Br)N1N=C(c2ccccc2)CC1c1ccccc1F (centres undefined) | inconclusive: 79.4 µM [inhibitor, single point] |  |
| CC(/C=C1\SC(=S)N(NC(=O)c2ccccc2C)C1=O)=C\c1ccccc1 | inconclusive: 31.6 µM [inhibitor, partial curve] |  |
| CCc1ccccc1NC(=O)c1ccc(S(=O)(=O)NCC2CCCO2)cc1 (centres undefined) |  | inactive: -2.38% |
| CS(=O)(=O)N(CC(=O)NC1CCCCC1)Cc1ccc(Cl)cc1 |  | inactive: -16.3% |
| O=C(Nc1ccc(Cl)cc1Cl)c1ccc(Br)o1 |  | inactive: -3.23% |
| Cc1ccc(CSc2nnc(SCC(=O)N/N=C/C=C/c3ccco3)s2)cc1 | active: 50.1 µM |  |
| CN(C)CCNC(=S)Nc1ccccc1C(C)(C)C | inconclusive: 89.1 µM [inhibitor, single point] |  |
| COc1ccc(N2CCN(Cc3nc4c(c(=O)[nH]c(=O)n4C)n3Cc3ccccc3C)CC2)cc1 |  | inactive: -23% |
| N#CC(C#N)=C(Nc1ccc(F)cc1)SCc1cccc(Br)c1 | inconclusive: 44.7 µM [inhibitor, partial curve] |  |
| CC(C)C[C@H](NC(=O)[C@@H]1Cc2ccccc2CN1C(=O)OC(C)(C)C)C(=O)NCC1CCC(C(=O)O)CC1 (some centres undefined) |  | inactive: -16.7% |
| COC(=O)c1ccc(NC(=O)C(=O)NCCc2csc(-c3ccc(F)cc3)n2)cc1 |  | inactive: 4.02% |
| CCOC(=O)c1c(C)[n+]([O-])c2ccc3c(non3O)c12 | inconclusive: 22.4 µM [inhibitor, full curve] |  |
| COc1ccc(-n2cc(-c3ccccc3)[nH]c2=S)cc1 | inconclusive: 70.8 µM [inhibitor, single point] |  |
| O=C(CSc1ncccc1C(=O)Oc1ccccc1Cl)Nc1ccc(C(F)(F)F)cc1Cl |  | inactive: 4.96% |
| COc1ccc(C2/C(=C(/O)c3ccccc3)C(=O)C(=O)N2CCN2CCOCC2)c(OC)c1 (centres undefined) | inconclusive: 100 µM [inhibitor, single point] |  |
| Cc1cc(NC(=O)CSc2nnc(C3COc4ccccc4O3)o2)no1 (centres undefined) | active: 50.1 µM |  |
| Cc1ccc(C)c(NC(=O)CN(C)C(=O)C2CCCC2)c1 |  | inactive: 17.1% |
